Legend:
human CCR8 [1] = target: T1, human CCR8 (human, UniProt P51685 1-355); assay: cell-based or functional assay
human CCR8 [2] = target: T1, human CCR8; assay: cell-based or functional assay; remark: listed apart in the source
human CCR8 [3] = target: human CCR8 (human, UniProt P51685 1-355); assay: cell-based or functional assay; remark: listed apart in the source
cynomolgus CCR8 = target: T2, cynomolgus CCR8 (cynomolgus, UniProt O97665 1-356 (rhesus entry)); assay: FACS, CHO cells transfected with cynomolgus CCR8
T2 construct: also called cynoCCR8; G7NYJ2_CCR8_MACFA

Sequence of cynomolgus CCR8 (O97665 other isoform, or with tags, fused parts or gaps): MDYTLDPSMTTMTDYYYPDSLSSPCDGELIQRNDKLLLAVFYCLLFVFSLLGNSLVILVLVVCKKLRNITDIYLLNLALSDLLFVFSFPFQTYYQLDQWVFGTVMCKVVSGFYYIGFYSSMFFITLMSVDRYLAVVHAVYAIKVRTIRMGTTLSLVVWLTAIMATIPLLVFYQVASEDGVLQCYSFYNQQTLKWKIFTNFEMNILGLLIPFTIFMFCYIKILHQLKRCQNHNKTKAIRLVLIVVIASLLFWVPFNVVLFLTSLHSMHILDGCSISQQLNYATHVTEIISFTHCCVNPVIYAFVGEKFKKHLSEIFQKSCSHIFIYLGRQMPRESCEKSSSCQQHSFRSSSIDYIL

ADCC EC50 (pM); HEK-hCCR8 + NK92v (human CCR8 [1]) | ADCC Max Response (%); HEK-hCCR8 + NK92v (human CCR8 [1]) | ADCC EC50 (pM); HEK-hCCR8 + NK92v, n = 2 (human CCR8 [2]) | ADCC Max Response (%); HEK-hCCR8 + NK92v, n = 2 (human CCR8 [2]) | ADCP EC50 (pM), Incucyte live-imaging; human CCR8-HEK target cells, M2c macrophages as effector cells (human CCR8 [3]) | ADCP Max Response (%), Incucyte live-imaging; human CCR8-HEK target cells, M2c macrophages as effector cells (human CCR8 [3]) | EC50 (cynomolgus CCR8) | Binder
363 pM | 32% | 823 pM | 25% | – | – | – | TPP-27479, afucosylated (antibody, human IgG1, lambda, afucosylated (no fucose on the N-glycan at N297)) heavy: EVQLLESGGGLVQPGGSLRLSCAASGFTFSSYGMHWVRQAPGKGLEWVSGINWNGGSTGYADSVKGRFTISRDNSKNTLYLQMNSLRAEDTAVYYCARGHHSGYDGRFFDYWGQGTLVTVSS[here human IgG1 constant region without letters] light: QSVLTQPPSVSGAPGQRVTISCTGSSSNIGAGYNVHWYQQLPGTAPKLLIYTNNRRPSGVPDRFSGSKSGTSASLAISGLRSEDEADYYCAAWDASLSGWVFGGGTKLTVLGQPKAAPSVTLFPPSSEELQANKATLVCLISDFYPGAVTVAWKADSSPVKAGVETTTPSKQSNNKYAASSYLSLTPEQWKSHRSYSCQVTHEGSTVEKTVAPTECS
– | – | – | – | – | – | 455 pM | TPP-27496 (antibody, human IgG1, lambda, 70% afucosylated) heavy: EVQLLESGGGLVQPGGSLRLSCAASGFTFSSYGMHWVRQAPGKGLEWVSAINWNGGSTGYADSVKGRFTISRDNSKNTLYLQMNSLRAEDTAVYYCARGHHSGYDGRFFDYWGQGTLVTVSS[here human IgG1 constant region with changes without letters] light: QSVLTQPPSVSGAPGQRVTISCTGSSSNIGAGYNVHWYQQLPGTAPKLLIYTNNRRPSGVPDRFSGSKSGTSASLAISGLRSEDEADYYCAAWDASLSGWVFGGGTKLTVLGQPKAAPSVTLFPPSSEELQANKATLVCLISDFYPGAVTVAWKADSSPVKAGVETTTPSKQSNNKYAASSYLSLTPEQWKSHRSYSCQVTHEGSTVEKTVAPTECS

Further lines, the binder ahead of its results:

Binder | ADCC EC50 (pM); HEK-hCCR8 + NK92v (human CCR8 [1]) | ADCC Max Response (%); HEK-hCCR8 + NK92v (human CCR8 [1]) | ADCC EC50 (pM); HEK-hCCR8 + NK92v, n = 2 (human CCR8 [2]) | ADCC Max Response (%); HEK-hCCR8 + NK92v, n = 2 (human CCR8 [2]) | ADCP EC50 (pM), Incucyte live-imaging; human CCR8-HEK target cells, M2c macrophages as effector cells (human CCR8 [3]) | ADCP Max Response (%), Incucyte live-imaging; human CCR8-HEK target cells, M2c macrophages as effector cells (human CCR8 [3]) | EC50 (cynomolgus CCR8)
TPP-27478, afucosylated (antibody, human IgG1, lambda, afucosylated (no fucose on the N-glycan at N297)) heavy: EVQLLESGGGLVQPGGSLRLSCAASGFTFSSYGMHWVRQAPGKGLEWVSAINWNGGSTGYADSVKGRFTISRDNSKNTLYLQMNSLRAEDTAVYYCARGHHSGYDGRFFDYWGQGTLVTVSS[here human IgG1 constant region without letters] light: QSVLTQPPSASGAPGQRVTISCTGSSSNIGAGYNVHWYQQLPGTAPKLLIYTNNRRPSGVPDRFSGSKSGTSASLAISGLRSEDEADYYCAAWDASLSGWVFGGGTKLTVLGQPKAAPSVTLFPPSSEELQANKATLVCLISDFYPGAVTVAWKADSSPVKAGVETTTPSKQSNNKYAASSYLSLTPEQWKSHRSYSCQVTHEGSTVEKTVAPTECS | 110 pM | 35% | 11 pM | 32% | – | – | –
TPP-27479 (antibody, human IgG1, lambda) heavy: EVQLLESGGGLVQPGGSLRLSCAASGFTFSSYGMHWVRQAPGKGLEWVSGINWNGGSTGYADSVKGRFTISRDNSKNTLYLQMNSLRAEDTAVYYCARGHHSGYDGRFFDYWGQGTLVTVSS[here human IgG1 constant region without letters] light: QSVLTQPPSVSGAPGQRVTISCTGSSSNIGAGYNVHWYQQLPGTAPKLLIYTNNRRPSGVPDRFSGSKSGTSASLAISGLRSEDEADYYCAAWDASLSGWVFGGGTKLTVLGQPKAAPSVTLFPPSSEELQANKATLVCLISDFYPGAVTVAWKADSSPVKAGVETTTPSKQSNNKYAASSYLSLTPEQWKSHRSYSCQVTHEGSTVEKTVAPTECS | – | – | – | – | 79.5 pM | 9.8% | –
